From the BET-seq Pho4 binding data (Le et al. 2018)
This is one part of the list. These are noisy estimates, calculated here from bound and input reads.

Target: T1, Pho4 (S. cerevisiae) (UniProt P07270)
T1 sequence: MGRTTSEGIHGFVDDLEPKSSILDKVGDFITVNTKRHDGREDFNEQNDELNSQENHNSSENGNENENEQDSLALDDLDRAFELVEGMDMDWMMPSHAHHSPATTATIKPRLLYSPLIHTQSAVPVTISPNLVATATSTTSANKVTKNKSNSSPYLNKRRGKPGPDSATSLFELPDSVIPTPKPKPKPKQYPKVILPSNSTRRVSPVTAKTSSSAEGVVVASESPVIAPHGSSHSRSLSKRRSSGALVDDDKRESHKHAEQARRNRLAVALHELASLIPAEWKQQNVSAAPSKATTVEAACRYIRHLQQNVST
Assay: relative binding free energy (BET-seq); higher = weaker binding
Conditions: reference: library average

Row | Sequence | relative binding free energy
1 | GTAAGCACGTGTGAAT | 0.04 kcal/mol
2 | CATCACACGTGGGTGG | -0.03 kcal/mol
3 | TATGGCACGTGTGCAT | -0.09 kcal/mol
4 | TCTCTCACGTGTGGGG | 0.2 kcal/mol
5 | CAGGGCACGTGTTTTT | -0.16 kcal/mol
6 | TATATCACGTGTGAAG | 0.33 kcal/mol
7 | GTGTGCACGTGGCGGA | -0.06 kcal/mol
8 | AGATGCACGTGTGTCA | 0.12 kcal/mol
9 | GGCTGCACGTGGGGCG | -0.12 kcal/mol
10 | ATATGCACGTGTTAAA | -0.1 kcal/mol
11 | CAGAACACGTGTGGGT | 0.07 kcal/mol
12 | AGGAGCACGTGGCAGT | -0.38 kcal/mol
13 | ACAAGCACGTGGGTTT | -0.18 kcal/mol
14 | AATGACACGTGTAGGT | 0.02 kcal/mol
15 | TCTAGCACGTGGAGTG | -0.18 kcal/mol
16 | ATTTACACGTGGATTA | 0.21 kcal/mol
17 | GTTTGCACGTGTAGAA | 0.13 kcal/mol
18 | TGGTCCACGTGGTTGA | 0.01 kcal/mol
19 | CTAGGCACGTGGTGGT | -0.08 kcal/mol
20 | TGTCTCACGTGGAAAT | 0.34 kcal/mol
21 | TGTTTCACGTGCTATT | 0.14 kcal/mol
22 | TACTGCACGTGTTTGG | 0.03 kcal/mol
23 | TGTGTCACGTGGTATT | 0.08 kcal/mol

Row | Sequence | relative binding free energy
24 | TGGGTCACGTGGGCCA | 0.04 kcal/mol
25 | TTTGACACGTGGGAGA | -0.12 kcal/mol
26 | GTATACACGTGTAATT | 0.22 kcal/mol
27 | AGAGTCACGTGGGAGC | -0.05 kcal/mol
28 | GGTTGCACGTGGGCTA | -0.15 kcal/mol
29 | TGTTACACGTGCATTG | 0.03 kcal/mol
30 | TAGAGCACGTGGCGTT | -0.13 kcal/mol
31 | GCAGGCACGTGTGAGG | 0 kcal/mol
32 | GATCTCACGTGGGAGT | 0.21 kcal/mol
33 | GTTTTCACGTGATTCT | 0.26 kcal/mol
34 | TGCAGCACGTGTTTAG | -0.17 kcal/mol
35 | GCAGGCACGTGAGTTT | 0.14 kcal/mol
36 | GAAGGCACGTGACGGG | 0.07 kcal/mol
37 | GGTCTCACGTGGCTGT | 0.27 kcal/mol
38 | GGCTACACGTGGGTCT | 0.13 kcal/mol
39 | CGCGTCACGTGGGAGT | -0.04 kcal/mol
40 | TCGGTCACGTGGGAAG | 0 kcal/mol
41 | CTAGTCACGTGTGCGT | 0 kcal/mol
42 | GATTGCACGTGGGCTG | -0.17 kcal/mol
43 | CTTAGCACGTGTGTAT | -0.14 kcal/mol
44 | AGTATCACGTGGTCTT | 0.02 kcal/mol
45 | GTGTGCACGTGGGTTG | -0.08 kcal/mol
46 | GCTTGCACGTGTGTAG | 0.15 kcal/mol

Row | Sequence | relative binding free energy
47 | GGGGGCACGTGGTAAT | -0.05 kcal/mol
48 | TGGCGCACGTGTATGG | -0.11 kcal/mol
49 | ATTGGCACGTGTGACT | 0.02 kcal/mol
50 | TTGATCACGTGGGTTC | -0.09 kcal/mol
51 | CGCTGCACGTGGGTAG | -0.26 kcal/mol
52 | ATCAGCACGTGATGGT | 0.12 kcal/mol
53 | TACTTCACGTGAAGTG | 0.26 kcal/mol
54 | TAGTACACGTGTCGGT | -0.04 kcal/mol
55 | CGGTACACGTGTCTGT | 0.15 kcal/mol
56 | TCATGCACGTGTAATG | 0.19 kcal/mol
57 | ATCATCACGTGCGTGG | 0.11 kcal/mol
58 | AGTGTCACGTGGCGTG | 0.13 kcal/mol
59 | CATAGCACGTGGAGTT | 0.03 kcal/mol
60 | ATAATCACGTGGTAGA | 0.22 kcal/mol
61 | TTAAACACGTGATGAT | 0.17 kcal/mol
62 | GGGCACACGTGGTGAG | 0.15 kcal/mol
63 | GCGTGCACGTGGGCAG | -0.15 kcal/mol
64 | GTTTTCACGTGACAAG | 0.43 kcal/mol
65 | GAATGCACGTGGTGCT | -0.1 kcal/mol
66 | ATGAACACGTGTTGGA | 0.08 kcal/mol
67 | GGTAACACGTGAGTGT | 0.2 kcal/mol
68 | TTTTCCACGTGTGTGA | 0.07 kcal/mol
69 | ATTTTCACGTGATTCT | 0.19 kcal/mol

Row | Sequence | relative binding free energy
70 | TTCTGCACGTGGGCTT | -0.23 kcal/mol
71 | AGGTGCACGTGAACTT | 0.3 kcal/mol
72 | GGTGTCACGTGGAACG | 0.13 kcal/mol
73 | TGTTACACGTGAAGGT | 0.24 kcal/mol
74 | GTATGCACGTGTAGGG | -0.03 kcal/mol
75 | TTAGCCACGTGTTATT | -0.02 kcal/mol
76 | TTAATCACGTGACTTG | 0.27 kcal/mol
77 | TGAGGCACGTGGTGTC | -0.18 kcal/mol
78 | GGTGGCACGTGTGAGA | 0.11 kcal/mol
79 | TTACGCACGTGTTCGG | -0.19 kcal/mol
80 | GAGGGCACGTGGTCGA | -0.1 kcal/mol
81 | TTTCGCACGTGTACGT | -0.01 kcal/mol
82 | AGAGGCACGTGTGTGC | -0.17 kcal/mol
83 | ATTAGCACGTGGCCGG | -0.14 kcal/mol
84 | ACGAGCACGTGGGGGG | -0.43 kcal/mol
85 | ATAGTCACGTGGGAAA | 0.01 kcal/mol
86 | GGCGTCACGTGTCGGT | 0.11 kcal/mol
87 | AATTACACGTGGAGGG | -0.04 kcal/mol
88 | GGAGACACGTGCGTTT | 0.17 kcal/mol
89 | CGTTACACGTGTTCGG | 0.05 kcal/mol
90 | CTGGTCACGTGGGCCT | -0.01 kcal/mol
91 | AGTTTCACGTGGGCGC | 0.14 kcal/mol
92 | AGATTCACGTGGTTTT | 0.23 kcal/mol

Row | Sequence | relative binding free energy
93 | TGATTCACGTGTGTAA | 0.2 kcal/mol
94 | GTGAGCACGTGTGAGC | 0.03 kcal/mol
95 | AATGTCACGTGGCTGT | 0.05 kcal/mol
96 | TAAAGCACGTGTGTTA | 0.07 kcal/mol
97 | TTTGTCACGTGGACTG | 0.07 kcal/mol
98 | GAAGGCACGTGGTTGT | -0.12 kcal/mol
99 | ATTTTCACGTGGTATC | 0.19 kcal/mol
100 | TTGTTCACGTGTTCAA | 0.3 kcal/mol
101 | CAAGGCACGTGTAGCG | 0.14 kcal/mol
102 | CGTTTCACGTGGGTAC | 0.14 kcal/mol
103 | TGTGGCACGTGGAACG | -0.08 kcal/mol
104 | AGTGACACGTGTGAGT | 0.09 kcal/mol
105 | AGTCGCACGTGGATGT | 0.02 kcal/mol
106 | TGGGCCACGTGCTGTT | -0.06 kcal/mol
107 | CCGTGCACGTGGTGGG | -0.2 kcal/mol
108 | GGAGGCACGTGTGATT | 0.09 kcal/mol
109 | ATGAACACGTGTTATT | 0 kcal/mol
110 | ATGGGCACGTGCGGCA | -0.19 kcal/mol
111 | GGGAGCACGTGATGTG | 0.1 kcal/mol
112 | CTGCTCACGTGGTGTG | 0 kcal/mol
113 | TTAACCACGTGGTAGT | -0.06 kcal/mol
114 | CTCGGCACGTGGGAGA | -0.02 kcal/mol
115 | TGTTGCACGTGAGCTA | 0.04 kcal/mol
